19 compounds from PubChem BioAssay AID1745853 (National Center for Advancing Translational Sciences (NCATS), 2022) can be followed below.

Values joined by “and” are separate entries in the source; they are usually repeats but may differ in a detail not shown here. Identical values can stand only once. This is one part of the list. These are further read-outs of the screen, such as a control signal, another cell line or another target. No call is given for them.

Common to all, as to experiment: Primary Screen for Target Class Profiling of Small Molecule Inhibitors of Methyltransferases
Assay [1] addresses Glycine N-methyltransferase (Homo sapiens) (UniProt Q14749). The note with it: purified enzyme, MTase-Glo SAH luminescence; measured here: GNMT inhibition; at 40 µM; stronger effect = lower value. In a few lines: (§1)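 Each enzyme was reacted with SAM and its substrate, with compounds tested once at 40 uM; SAH formed was read by MTase-Glo luminescence.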
Assay [2] has as its target Guanidinoacetate N-methyltransferase (Homo sapiens) (UniProt Q14353). The note with it: purified enzyme, MTase-Glo SAH luminescence; measured here: GAMT inhibition; at 40 µM; stronger effect = lower value. In a few lines: as §1
The target of assay [3] is Histamine N-methyltransferase (Homo sapiens) (UniProt P50135). The note with it: purified enzyme, MTase-Glo SAH luminescence; measured here: HNMT inhibition; at 40 µM; stronger effect = lower value. Put shortly:
as §1

Assay [4] deals with Nicotinamide N-methyltransferase (Homo sapiens) (UniProt P40261). The note with it: purified enzyme, MTase-Glo SAH luminescence; measured here: NNMT inhibition; at 40 µM; stronger effect = lower value. In a few lines: as §1
In assay [5] the target is Phenylethanolamine N-methyltransferase (Homo sapiens) (UniProt P11086). The note with it: purified enzyme, MTase-Glo SAH luminescence; measured here: PNMT inhibition; at 40 µM; stronger effect = lower value. Put shortly: as §1
On the % scale 0 is the no-effect control and ±100 the full control effect.

As for `COc1ccc2cc3n(c2c1)CC(C)(C(=O)NC1CCCCC1)N(Cc1cccc(Cl)c1)C3=O` (stereo not given), the activity change, negative = inhibition in assay [1] was -0.799%; in assay [2], 2.8%; in assay [3] it was 1.81%; in assay [4], 0.22%; in assay [5], -0.611%.

`Cc1nc([C@@H]2CN(S(=O)(=O)c3ccc4c(c3)CCCC4)C[C@H]2C(N)=O)n[nH]1`: the activity change, negative = inhibition in assay [1] is -3.48%; in assay [2], -2.66%; in assay [3] it was -4.37%; in assay [4] it was -5.13%; in assay [5] it was -5.67%.

Regarding `COc1ccc(-c2ccc3ncn(C4CC4)c(=O)c3n2)cn1`, the activity change, negative = inhibition in assay [1] is -8.44%; in assay [2], -10.7%; in assay [3], -4.12%; in assay [4] it was -12%; in assay [5], -4.9%.

For the compound `COc1ccccc1C(=O)N1CCCC(c2nnc3n2C(C(=O)O)CC3)C1` (stereo not given), the activity change, negative = inhibition is -4.97% in assay [1]; -8.59% in assay [2]; -3.06% in assay [3]; -12.8% in assay [4]; 7.75% in assay [5].

With `CCN(CC)CCn1c(=O)c(Cc2ccc(OC)cc2)nc2ccccc21`, the activity change, negative = inhibition in assay [1] is -8.28%; in assay [2], 3.63%; in assay [3], -16.3%; in assay [4] it was -13%; in assay [5], 1.9%.

As for `O=C(CSc1nnc2n(Cc3ccccc3)c(=O)c3ccccc3n12)Nc1cc(F)ccc1F`, the activity change, negative = inhibition in assay [1] was -3.65%; in assay [2], 3.69%; in assay [3] it was 3.8%; in assay [4] it was -7.18%; in assay [5] it was -0.298%.

In the case of `CCc1cc2c(cc3n2CC(C)(C(=O)NC2CCCCCC2)N(c2cccc(C)c2C)C3=O)s1` (stereo not given), the activity change, negative = inhibition in assay [1] is 2.83%; in assay [2], 3.9%; in assay [3] it was -2.29%; in assay [4] it was 8.25%; in assay [5] it was 0.922%.

As for `CC1OC2OC(=O)C3(C)CC4C5(CO5)C5=CC(=O)OC(C)(C)C5=CC(=O)C4(C)C(C1=O)C23` (stereo not given), the activity change, negative = inhibition in assay [1] was -6.59%; in assay [2], -1.42%; in assay [3], 9.57%; in assay [4], -14%; in assay [5] it was -10%.

`CC1(C(=O)NC2CCCC2)Cn2c(cc3sccc32)C(=O)N1Cc1cccc(F)c1` (stereo not given): the activity change, negative = inhibition in assay [1] was -3.02%; in assay [2], 2.43%; in assay [3], 5.87%; in assay [4], -4.86%; in assay [5], 0.011%.

Consider `CC1(C)CCCC2(C)C1C(OC(=O)/C=C/C=C/C=O)C=C1COC(=O)C12O` (stereo not given), for which the activity change, negative = inhibition is -4.21% in assay [1]; -4.97% in assay [2]; -1.71% in assay [3]; -23.4% in assay [4]; -13.2% in assay [5].

Turning to `Cc1cc(F)ccc1NS(=O)(=O)c1cc2c(cc1C)n(C)c(=O)n2C`, the activity change, negative = inhibition in assay [1] was 10.4%; in assay [2] it was 0%; in assay [3], 6.24%; in assay [4], -2.25%; in assay [5], 1.77%.

With `O=C(NC1CC(=O)N(Cc2cccc(F)c2)C1)c1ccccc1-n1cccn1` (stereo not given), the activity change, negative = inhibition is -0.189% in assay [1]; -4% in assay [2]; -0.389% in assay [3]; -0.817% in assay [4]; 4.72% in assay [5].

As for `C=C1CCC[C@]2(C)CC/C(=C(/CO)C(=O)OC)C[C@@H]12`, the activity change, negative = inhibition was -0.489% in assay [1]; -4.72% in assay [2]; 6.22% in assay [3]; -18.4% in assay [4]; -10.1% in assay [5].

Turning to `Cc1cc2c(cc3n2CC(C(=O)NC2CCCCCC2)(c2ccccc2)N(Cc2ccccc2)C3=O)o1` (stereo not given), the activity change, negative = inhibition in assay [1] is -2.37%; in assay [2], -0.769%; in assay [3] it was 0.556%; in assay [4], -5.99%; in assay [5], -7.98%.

Regarding `CC(C)CCNC(=O)c1cc2n(n1)CC(C)(C(=O)NCc1ccccc1)N(C)C2=O` (stereo not given), the activity change, negative = inhibition in assay [1] was 1.15%; in assay [2] it was 2.42%; in assay [3] it was -3.41%; in assay [4], -2.02%; in assay [5] it was 0.187%.

Take `CC(=O)O[C@@H](CO[C@@H]1O[C@H](CO)[C@H](O)[C@H](O)[C@H]1O)[C@]1(C)C=C2CC[C@@H]3C(C)(C)[C@@H](O)CC[C@@]3(C)[C@@H]2CC1`: the activity change, negative = inhibition in assay [1] is -1.16%; in assay [2] it was -8.97%; in assay [3], 3.55%; in assay [4], -20.8%; in assay [5] it was -8.08%.

With `CCCn1c(=O)c2ccc(C(=O)NC(C)CC)cc2n2c(=O)n(CC(=O)Nc3cccc(Cl)c3)nc12` (stereo not given), the activity change, negative = inhibition was -1.45% in assay [1]; 1.86% in assay [2]; 0.537% in assay [3]; -2.22% in assay [4]; -1.16% in assay [5].

As to `Oc1ccc(Nc2nc(-c3ccc(Cl)cc3)cs2)cc1`, the activity change, negative = inhibition in assay [1] is -3.3%; in assay [2], 9.41%; in assay [3], 9.98%; in assay [4], -3.63%; in assay [5], 3.53%.

Consider `CC(C)N(C[C@H]1O[C@@H](n2cnc3c(N)ncnc32)[C@H](O)[C@@H]1O)C1CC(CCc2nc3ccc(C(C)(C)C)cc3[nH]2)C1` (stereo not given in full), for which the activity change, negative = inhibition is -46.9% in assay [1]; -0.317% and -0.553% in assay [2]; -80.1% in assay [3]; -95.3% and -94.8% in assay [4]; -91.4% and -90.6% in assay [5].
